Binding data for 6 molecules are collected here from PMC13343975, “A connection between two ancient and essential cellular processes, iron-sulfur protein biogenesis and fatty acid synthesis, in Escherichia coli” (mBio, 2026).

Sequences of proteins named here, by UniProt entry; tags and fusion partners are left off. A change or cut given only in a name is not applied to a line headed by its entry.
UniProt P0A6A8: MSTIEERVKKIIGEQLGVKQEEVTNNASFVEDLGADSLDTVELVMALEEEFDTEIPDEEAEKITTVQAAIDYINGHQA
UniProt P0A6B7: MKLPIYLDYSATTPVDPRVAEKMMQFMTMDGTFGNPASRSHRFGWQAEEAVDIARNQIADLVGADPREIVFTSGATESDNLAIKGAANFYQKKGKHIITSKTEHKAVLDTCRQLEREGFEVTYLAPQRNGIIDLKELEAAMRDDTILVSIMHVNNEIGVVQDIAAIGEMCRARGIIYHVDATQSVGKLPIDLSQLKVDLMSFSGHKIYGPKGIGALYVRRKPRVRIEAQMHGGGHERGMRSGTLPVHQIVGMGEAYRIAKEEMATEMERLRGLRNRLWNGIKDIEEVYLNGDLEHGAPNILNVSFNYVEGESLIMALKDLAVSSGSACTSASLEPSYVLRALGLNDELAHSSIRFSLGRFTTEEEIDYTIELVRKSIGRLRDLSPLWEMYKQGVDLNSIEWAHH

No constants are given. Whether binding was seen depends on the method and setting. For some of these results: In cells and extracts the contact can be indirect. Some results given as binding are weak or reduced against the parent protein; the word gives no strength.

One assay deals with CBP-ACP (E. coli) (UniProt P0A6A8). In words: pull-down; co-purification on calmodulin beads: soluble extracts of MG1655 making CBP-ACP fusions (0.01% arabinose), 2 h at 4°C in 10 mM Tris-HCl pH 8.0, 150 mM NaCl, 0.1% NP40, 1 mM Mg-acetate, 1 mM imidazole, 2 mM CaCl2; IscS detected by western blot.
A further assay addresses CBP-ACP_(D35N) (E. coli) (UniProt P0A6A8). Described as above.
A further assay deals with CBP-ACP_(D38N) (E. coli) (UniProt P0A6A8). The assay is described as above.
The next assay concerns the target CBP-ACP_(E41Q) (E. coli) (UniProt P0A6A8). The assay is described as above.
A further assay has as its target CBP-ACP_(S36T) (E. coli) (UniProt P0A6A8). The description is as above.
In assay [1] the target is 6His-ACP_(D35N) (E. coli) (UniProt P0A6A8). Kind of assay: native gel or EMSA; 6His-IscS 15 µM with 6His-ACP or variant 30 µM, 20 min at 37°C in 100 mM Hepes, 150 mM NaCl; non-denaturing 12% PAGE, Coomassie Blue; both purified.
Assay [2] deals with 6His-ACP_(S36T) (E. coli) (UniProt P0A6A8). The description is as above.
In assay [3] the target is T25-ACP (E. coli) (UniProt P0A6A8). In words: two-hybrid; BACTH: T25 and T18 fusions co-transformed in E. coli BTH101; β-galactosidase activity (Fig. 2A) or spots on LB plates with X-gal and IPTG at 30°C (Fig. 2B, C).
Assay [4] has the same target. In words: two-hybrid; BACTH in E. coli BTH101 with human ISD11 co-expressed with the T18-IscS fusion (pT18-IscS-ISD11); β-galactosidase activity.
The target of the next assay is T25-ACP_(D35N) (E. coli) (UniProt P0A6A8). Kind of assay: two-hybrid; BACTH: T25 and T18 fusions co-transformed in E. coli BTH101; β-galactosidase activity (Fig. 2A) or spots on LB plates with X-gal and IPTG at 30°C (Fig. 2B, C).
The target of another assay is T25-ACP_(D38N) (E. coli) (UniProt P0A6A8). The assay is described as above.
The target of the next assay is T25-ACP_(E41Q) (E. coli) (UniProt P0A6A8). Described as above.
For another assay, the target named is T25-ACP_(S36T) (E. coli) (UniProt P0A6A8). The description is as above.

Regarding “Endogenous IscS (from UniProt P0A6B7 1-404) (enzyme)”, the binding entry is listed as “binds” with CBP-ACP (E. coli); “no binding” with CBP-ACP_(D35N) (E. coli); “no binding” with CBP-ACP_(D38N) (E. coli); “binds” with CBP-ACP_(E41Q) (E. coli); “no binding” with CBP-ACP_(S36T) (E. coli).
Take “6His-IscS (from UniProt P0A6B7 1-404) (enzyme)”: the binding entry in assay [1] and in [2] was “no binding (tested: 15 µM 6His-IscS with 30 µM ACP variant)” in each case.
With “T18-IscS_(R116E) (from UniProt P0A6B7 1-404) (enzyme)”, in the assay with T25-ACP (E. coli) [3], the binding result is recorded as “no binding”.
The same measure, in the same setting: with “T18-IscS_(R112E) (from UniProt P0A6B7 1-404) (enzyme)” the entry was “no binding”.
“T18-IscS (from UniProt P0A6B7 1-404) (enzyme)”: the binding entry is “no binding (condition: with human ISD11 co-expressed)” in the assay with T25-ACP (E. coli) [4]; “binds” with T25-ACP (E. coli) [3]; “no binding” with T25-ACP_(D35N) (E. coli); “no binding” with T25-ACP_(D38N) (E. coli); “binds weakly” in the assay with T25-ACP_(E41Q) (E. coli); “no binding” in the assay with T25-ACP_(S36T) (E. coli).

B1: T18-SufS (enzyme, UniProt P77444 1-406)
chain: MIFSVDKVRADFPVLSREVNGLPLAYLDSAASAQKPSQVIDAEAEFYRHGYAAVHRGIHTLSAQATEKMENVRKRASLFINARSAEELVFVRGTTEGINLVANSWGNSNVRAGDNIIISQMEHHANIVPWQMLCARVGAELRVIPLNPDGTLQLETLPTLFDEKTRLLAITHVSNVLGTENPLAEMITLAHQHGAKVLVDGAQAVMHHPVDVQALDCDFYVFSGHKLYGPTGIGILYVKEALLQEMPPWEGGGSMIATVSLSEGTTWTKAPWRFEAGTPNTGGIIGLGAALEYVSALGLNNIAEYEQNLMHYALSQLESVPDLTLYGPQNRLGVIAFNLGKHHAYDVGSFLDNYGIAVRTGHHCAMPLMAYYNVPAMCRASLAMYNTHEEVDRLVTGLQRIHRLLG
As for B1, the binding entry with T25-ACP (E. coli) [3] is “no binding”.
